The source of these data is publication PMC4336329 (PLoS ONE, 2015).

Screen size: about 310,000 compounds; about 2,200 (0.71%) showed an effect of 50% or more. The effect is printed as a negative number. The list shows a part of the results.

The target of the assay is human ether-à-go-go-related gene (hERG) potassium channel (human, UniProt Q12809). Briefly: primary screen, population patch clamp on CHO cells stably expressing hERG.
Sequence of human ether-à-go-go-related gene (hERG) potassium channel (Q12809 whole entry, looked up): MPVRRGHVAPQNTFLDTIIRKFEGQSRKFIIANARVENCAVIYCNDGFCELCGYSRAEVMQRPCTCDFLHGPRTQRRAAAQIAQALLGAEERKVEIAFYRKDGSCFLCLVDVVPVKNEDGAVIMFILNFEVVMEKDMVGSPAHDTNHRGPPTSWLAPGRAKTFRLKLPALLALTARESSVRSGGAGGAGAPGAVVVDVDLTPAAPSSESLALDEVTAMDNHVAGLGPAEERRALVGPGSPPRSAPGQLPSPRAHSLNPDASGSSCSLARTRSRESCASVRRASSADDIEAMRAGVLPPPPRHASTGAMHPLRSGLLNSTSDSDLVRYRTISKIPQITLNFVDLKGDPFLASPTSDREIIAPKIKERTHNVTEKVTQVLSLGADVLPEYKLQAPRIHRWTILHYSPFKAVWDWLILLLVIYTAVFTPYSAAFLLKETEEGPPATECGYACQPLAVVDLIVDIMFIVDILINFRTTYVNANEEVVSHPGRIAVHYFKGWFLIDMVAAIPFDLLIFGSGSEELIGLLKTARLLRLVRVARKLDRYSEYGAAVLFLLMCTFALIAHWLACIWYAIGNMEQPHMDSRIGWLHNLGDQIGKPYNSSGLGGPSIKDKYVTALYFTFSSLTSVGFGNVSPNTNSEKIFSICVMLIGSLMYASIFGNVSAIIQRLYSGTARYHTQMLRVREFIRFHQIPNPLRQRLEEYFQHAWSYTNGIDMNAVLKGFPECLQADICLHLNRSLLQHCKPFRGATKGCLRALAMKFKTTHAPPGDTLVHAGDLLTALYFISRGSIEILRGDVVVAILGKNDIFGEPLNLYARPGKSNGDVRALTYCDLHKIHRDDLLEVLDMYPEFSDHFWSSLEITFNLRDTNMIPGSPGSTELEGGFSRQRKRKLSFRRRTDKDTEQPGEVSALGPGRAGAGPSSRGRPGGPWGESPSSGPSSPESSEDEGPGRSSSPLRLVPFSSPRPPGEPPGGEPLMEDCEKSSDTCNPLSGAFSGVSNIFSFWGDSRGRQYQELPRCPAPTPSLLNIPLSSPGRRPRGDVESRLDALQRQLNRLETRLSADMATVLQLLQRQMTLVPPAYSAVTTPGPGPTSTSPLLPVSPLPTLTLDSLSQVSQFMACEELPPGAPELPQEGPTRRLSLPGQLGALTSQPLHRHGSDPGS
As to `C=CCOc1ccc(C(c2c(C)n(C)n(-c3ccccc3)c2=O)c2c(C)n(C)n(-c3ccccc3)c2=O)cc1`, the “hERG current change (%, negative = inhibition) at 1uM” value is on record as 14.2%.
To `CSCCC(NS(=O)(=O)c1ccccc1)C(=O)OCc1cc(=O)oc2cc(O)ccc12` (centres unmarked) belongs -18.6%.
In the case of `CC(C)CNC(=O)COc1ccc(Sc2ccc(OCC(=O)NCC(C)C)cc2)cc1`, the “hERG current change (%, negative = inhibition) at 1uM” value was determined as 0.848%.
As for `COCCNC(=O)c1ccccc1NC(=O)CCSc1ccccc1`, the figure is 10.7%; as for `CCCN1CCC(=O)N(CCN=[N+]=[N-])CC1`, 9.31%; as for `CC(C)c1[nH]nc2c1C(C(C)C)C(C#N)=C(N)O2` (centres unmarked), 3.8%.
`Cc1ccc(F)cc1NC(=O)COC(=O)COc1ccc(C#N)cc1`: the “hERG current change (%, negative = inhibition) at 1uM” value was -5.37%.
Turning to `C=CCN(CC=C)CCOc1cc(C)ccc1[N+](=O)[O-].O=C(O)C(=O)O`, the “hERG current change (%, negative = inhibition) at 1uM” value worked out at 6.69%.
As for `O=C(CN1CCN(Cc2ccccc2)CC1)Nc1ccc(S(=O)(=O)N2CCOCC2)cc1`, the figure is 12.1%; as for `COc1ccc(C(CC(=O)Nc2ccc(F)cc2)c2ccccc2)cc1` (centres unmarked), 9.31%.
As for `COc1ccc(CN2CCN(c3ccccn3)CC2)c(OC)c1C.O=C(O)C(=O)O`, the figure is 5.42%; as for `C=CCn1c(Cc2csc(N)n2)nnc1SCC(=O)Nc1ccccc1C(F)(F)F`, 5.66%.
To `CCOC(=O)c1ccccc1NC(=O)COc1cc(=O)n(CC)c2ccccc12` belongs 7.24%.
`COc1cccc(N2CCN(S(=O)(=O)c3cc4c(cc3Cl)NC(=O)CO4)CC2)c1`: the “hERG current change (%, negative = inhibition) at 1uM” value is 10.1%.
In the case of `N#Cc1nc(-c2ccc(F)cc2)oc1NCc1cccc2c1OCO2`, the “hERG current change (%, negative = inhibition) at 1uM” value stood at 13.6%.
`CC(=O)C1=C(N2CCCCC2)CCC1=O`: the “hERG current change (%, negative = inhibition) at 1uM” value was found to be 13.2%.
Take `COc1ccc(NC(=O)c2nc[nH]c2C(=O)N(C)Cc2ccccc2)cc1`: the “hERG current change (%, negative = inhibition) at 1uM” value was found to be 1.7%.
`Cc1ccccc1C(=O)OCC(=O)N(C)c1c(N)n(Cc2ccccc2)c(=O)[nH]c1=O`: the “hERG current change (%, negative = inhibition) at 1uM” value is 10.5%.
To `O=C(C1CCN(c2ncnc3c2nc2n3CCCCC2)CC1)N1CCCCC1` belongs 23.1%; to `O=C(Nc1ccccc1C(=O)N/N=C/c1ccco1)c1ccccc1Cl`, 10.4%.
Consider `COC(=O)c1cc(NC(=O)c2cccc(C(F)(F)F)c2)c(=O)oc1C`, for which the “hERG current change (%, negative = inhibition) at 1uM” value turned out to be 11.8%.
As for `Cc1cc(Cl)ccc1NC(=O)/C=N/O`, the figure is 10.3%; as for `CC(=O)Nc1ccc(SCC(=O)OCC(=O)NC(=O)NCc2ccco2)cc1`, 20.6%; as for `CC(c1ccccn1)N(CCN(C)C)C(=S)Nc1cccc(F)c1` (centres unmarked), 1.35%.
To `Cc1cc(NC(=O)c2c([N+](=O)[O-])c(C)nn2C)no1` belongs 14.8%.
In the case of `CCC(C)NC(=O)CSc1nc2c(sc(=S)n2Cc2ccco2)c(=O)n1-c1ccccc1` (centres unmarked), the “hERG current change (%, negative = inhibition) at 1uM” value is -1.4%.
On to `COc1ccc(C2C(C)C3(O)CC(C#N)(C(=O)N3)C2(C#N)C#N)cc1` (centres unmarked), for which the “hERG current change (%, negative = inhibition) at 1uM” value is listed as 7.88%.
As for `COc1nc(C)nc(NC(=O)NS(=O)(=O)c2ccc(C)cc2)n1`, the figure is 4.14%; as for `Nc1ccc(C(=O)OCc2nc3ccccc3s2)cc1`, 3.72%.
For `Cc1ccc(NC(=O)NNC(=O)C2CCN(Cc3ccc(F)cc3Cl)CC2)cc1`, the “hERG current change (%, negative = inhibition) at 1uM” value is on record as 11.7%.
Take `Cc1ccc(CN=c2c([N+](=O)[O-])nn(-c3cccc(C)c3)n2O)cc1`: the “hERG current change (%, negative = inhibition) at 1uM” value stood at 1.77%.
`CCN1CCCC1CNC(=O)CCc1nnc(CCC2CCCCC2)o1` (centres unmarked): the “hERG current change (%, negative = inhibition) at 1uM” value turned out to be 6.65%.
As for `Fc1ccc(CSc2nnc(-c3cccnc3)o2)cc1`, the figure is 10.2%; as for `COc1cccc(NC(=O)c2ncn[nH]2)c1`, 7.89%; as for `O=C(COC(=O)C1CC(=O)N(C2CCCCC2)C1)c1ccc(F)cc1` (centres unmarked), -22.8%.
As for `O=C(CN1C(=O)c2ccccc2C1=O)N1CCN(c2nnc(-c3ccccc3)c3ccccc23)CC1`, the figure is 13.5%.
In the case of `N#Cc1ccccc1OCC(=O)OCC(=O)Nc1ccc2c(c1)OCO2`, the “hERG current change (%, negative = inhibition) at 1uM” value stood at 12.2%.
As for `CC(C)Cn1c(=O)c2ccccc2n2c(SCC(=O)N3c4ccccc4CC3C)nnc12` (centres unmarked), the figure is 8.07%.
As for `CCOC(=O)c1c(S(=O)(=O)NCC(=O)NCc2ccc(C)cc2)c(C)n(C)c1C`, the figure is 15%; as for `CN(CC1CCOCC1)C(=O)CC1C(=O)NCCN1Cc1ccc(-c2ccccc2)cc1` (centres unmarked), 10.8%; as for `O=C(CSCc1cccs1)N1CCCC1`, 10.8%.
Regarding `Nc1ccc(C(=O)NCc2ccccc2)cc1`, the “hERG current change (%, negative = inhibition) at 1uM” value turned out to be 8.94%.
To `CCOCC(=O)Nc1ccc(S(=O)(=O)Nc2nccs2)cc1` belongs 10.9%; to `CCCOc1ccc(C(CC(=O)O)NC(=O)c2ccc3c(c2)OCO3)cc1` (centres unmarked), 19%; to `COc1ccc(NC(=O)C2CC(=O)N(CCc3ccc(F)cc3)C2)c(OC)c1` (centres unmarked), 3.5%.
As for `CC(NC(=O)c1cn(C)c2ccc(S(=O)(=O)N3CCCC3)cc2c1=O)c1ccccc1` (centres unmarked), the figure is 10.7%; as for `Cc1cc(-n2c(SCc3ccccc3F)nc3n[nH]c(C)c3c2=N)ccc1Cl`, 2.82%; as for `Cc1cc(C)n(CCCO)c(=O)c1C#N`, 3.09%.
Consider `COc1ccc(S(=O)(=O)NCC2CCC(C(=O)NCC(OC)OC)CC2)cc1` (centres unmarked), for which the “hERG current change (%, negative = inhibition) at 1uM” value came out at 5.35%.
For `CC(NC(=O)c1ccc(C#N)cc1)C1CC2CCC1C2` (centres unmarked), the “hERG current change (%, negative = inhibition) at 1uM” value was -6.72%.
Consider `CCCCCCCCCCCNC(=O)c1ccoc1C`, for which the “hERG current change (%, negative = inhibition) at 1uM” value is listed as 6.87%.
As for `COc1ccc(OC)c(/C=C/C(=O)c2ccc3c(c2)OCO3)c1`, the figure is 2.61%; as for `COc1ccccc1C(C)NC(=O)c1ccccc1SCC(=O)N1CCCC1` (centres unmarked), 8.38%.
Turning to `O=c1c2ccccc2c(-c2ccccc2)nn1Cc1ccccc1`, the “hERG current change (%, negative = inhibition) at 1uM” value came to 17.3%.
`C=CCOc1c(Cl)cc(CNc2ccc(C)c(Cl)c2)cc1OC`: the “hERG current change (%, negative = inhibition) at 1uM” value stood at 8.63%.
Regarding `C=CCNC(=O)c1c(Cl)cccc1Cl`, the “hERG current change (%, negative = inhibition) at 1uM” value amounted to 6.34%.
Turning to `C/C(=N\OC(=O)c1ccccc1F)c1nccs1`, the “hERG current change (%, negative = inhibition) at 1uM” value is listed as -3.73%.
Regarding `COc1cc(C(=O)N/N=C/c2ccsc2C)cc(OC)c1OC`, the “hERG current change (%, negative = inhibition) at 1uM” value was found to be 7.42%.
To `Cc1csc(N2CCN(c3cc4nc(-c5ccncc5)[nH]c4cc3Cl)CC2)n1` belongs 10.2%; to `O=C(c1ccc2c(c1)OCO2)N1CCN(c2ncccn2)CC1`, 1.2%.
On to `N=c1c(C(=O)NC2CCCC2)cc2c(=O)n3ccccc3nc2n1CCCN1CCOCC1`, for which the “hERG current change (%, negative = inhibition) at 1uM” value is on record as -63.7%.
For the molecule `O=C(O)CCC(=O)Nc1nc2nc(-c3ccccc3)cc(-c3ccccc3)n2n1`, the “hERG current change (%, negative = inhibition) at 1uM” value stood at 3.77%.
Turning to `Cc1ccc(-n2nc3c(N4CCC(C(=O)NCCc5cccs5)CC4)nnc(C)c3c2C)cc1`, the “hERG current change (%, negative = inhibition) at 1uM” value is 7.85%.
As for `c1ccc(SCCOCCN2CCc3ccccc3C2)cc1`, the “hERG current change (%, negative = inhibition) at 1uM” value is -62.7%.
As for `COc1ccc(-c2nnc(SCCC(=O)O)n2C)cc1OC`, the figure is 1.85%.
`CCN(CC(=O)Nc1cc(Cl)ccc1C)C(=O)c1ccc(=O)n(Cc2ccccc2)n1`: the “hERG current change (%, negative = inhibition) at 1uM” value is on record as 9.23%.
As for `O=C1C2C3C=CC(C3)C2C(=O)N1CCN1CCN(Cc2ccc([N+](=O)[O-])cc2)CC1` (centres unmarked), the figure is 2.59%.
On to `Cc1n[nH]c(=O)n1-c1ccc(C(C)C)cc1`, for which the “hERG current change (%, negative = inhibition) at 1uM” value was 14.5%.
On to `Cc1sc2ncn(CC(=O)NCC(=O)N3CCN(c4ccccc4F)CC3)c(=O)c2c1C`, for which the “hERG current change (%, negative = inhibition) at 1uM” value came to 7.84%.
As for `O=C(Nc1cccc(N2C(=O)C3CCCCC3C2=O)c1)c1ccccc1` (centres unmarked), the figure is 13.3%; as for `COc1ccc(CC(=O)OCC(=O)NC2CC2)cc1`, 10.1%; as for `O=C(Nc1c(C(=O)c2ccccc2)oc2ccccc12)c1cc(-c2ccccc2O)n[nH]1`, 17%.
To `CCOC(=O)CCCn1ncn2c(cc3occc32)c1=O` belongs 11.4%; to `N#CC1(NC(=O)COC(=O)c2cc(O)c3ccccc3c2O)CCCCC1`, 2.61%; to `CC1CCCN(C(=O)COC(=O)c2cc(-c3cccs3)nn2-c2ccccc2)C1` (centres unmarked), 1.34%.
In the case of `CN(CC(=O)Oc1ccc(-c2nnco2)cc1)S(=O)(=O)c1ccc(F)cc1`, the “hERG current change (%, negative = inhibition) at 1uM” value is given as -3.03%.
To `COc1ccc(OC)c(NC(=O)CN2CCN(C(=O)c3ccco3)CC2)c1` belongs -4.43%; to `Cc1ccc(Sc2cnc3ccccc3n2)cc1`, 0.237%; to `Clc1cccc(-c2nc(NCCCN3CCOCC3)c3ccccc3n2)c1`, 12.3%.
On to `CC(=O)Nc1ccc(OCC=C(Cl)Cl)cc1`, for which the “hERG current change (%, negative = inhibition) at 1uM” value turned out to be 4.11%.
For the molecule `CCn1cc(/C=c2/sc3n(c2=O)C2c4ccccc4OC(C)(N=3)C2C(=O)OC)c(C)n1` (centres unmarked), the “hERG current change (%, negative = inhibition) at 1uM” value was -0.252%.
For the molecule `O=C(CCNC(=O)c1ccc([N+](=O)[O-])cc1)Nc1ccc(S(=O)(=O)N2CCOCC2)cc1`, the “hERG current change (%, negative = inhibition) at 1uM” value is 11.2%.
To `CCCN1C(=O)/C(=C/c2ccc(C)o2)SC1=Nc1ccc(OC)cc1` belongs 9.04%; to `O=C(COc1nsnc1N1CCOCC1)Nc1ccc([N+](=O)[O-])cc1`, 4.03%.
To `O=C(NCc1cn(-c2ccccc2)nc1-c1ccccc1)c1ccc([N+](=O)[O-])cc1` belongs 4.3%; to `COc1ccccc1CNC(=O)CS(=O)(=O)c1ccc(C)cc1`, -8.82%.
As for `C=CCc1cc(/C=C2/NC(=O)NC2=O)cc(OCC)c1O`, the “hERG current change (%, negative = inhibition) at 1uM” value worked out at 13.9%.
Regarding `CC(O)(c1ccccc1)C(c1ccccc1)C1CCCCN1` (centres unmarked), the “hERG current change (%, negative = inhibition) at 1uM” value was 5.01%.
`Cc1ccc(O)c(Nc2nc(-c3ccccc3)nc3ccccc23)c1`: the “hERG current change (%, negative = inhibition) at 1uM” value is reported as 13.9%.
